Reference: PMC4336329 (PLoS ONE, 2015)
Out of some 310,000 compounds screened, about 14,000 (4.5%) showed an effect of 50% or more. The effect is printed as a negative number. This is one part of the list.

Target: human ether-à-go-go-related gene (hERG) potassium channel (human, UniProt Q12809)
Experiment: primary screen, population patch clamp on CHO cells stably expressing hERG
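Further: peak tail current of the secondary pulse compared with the same well before compound.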

Sequence of human ether-à-go-go-related gene (hERG) potassium channel (Q12809 whole entry, looked up): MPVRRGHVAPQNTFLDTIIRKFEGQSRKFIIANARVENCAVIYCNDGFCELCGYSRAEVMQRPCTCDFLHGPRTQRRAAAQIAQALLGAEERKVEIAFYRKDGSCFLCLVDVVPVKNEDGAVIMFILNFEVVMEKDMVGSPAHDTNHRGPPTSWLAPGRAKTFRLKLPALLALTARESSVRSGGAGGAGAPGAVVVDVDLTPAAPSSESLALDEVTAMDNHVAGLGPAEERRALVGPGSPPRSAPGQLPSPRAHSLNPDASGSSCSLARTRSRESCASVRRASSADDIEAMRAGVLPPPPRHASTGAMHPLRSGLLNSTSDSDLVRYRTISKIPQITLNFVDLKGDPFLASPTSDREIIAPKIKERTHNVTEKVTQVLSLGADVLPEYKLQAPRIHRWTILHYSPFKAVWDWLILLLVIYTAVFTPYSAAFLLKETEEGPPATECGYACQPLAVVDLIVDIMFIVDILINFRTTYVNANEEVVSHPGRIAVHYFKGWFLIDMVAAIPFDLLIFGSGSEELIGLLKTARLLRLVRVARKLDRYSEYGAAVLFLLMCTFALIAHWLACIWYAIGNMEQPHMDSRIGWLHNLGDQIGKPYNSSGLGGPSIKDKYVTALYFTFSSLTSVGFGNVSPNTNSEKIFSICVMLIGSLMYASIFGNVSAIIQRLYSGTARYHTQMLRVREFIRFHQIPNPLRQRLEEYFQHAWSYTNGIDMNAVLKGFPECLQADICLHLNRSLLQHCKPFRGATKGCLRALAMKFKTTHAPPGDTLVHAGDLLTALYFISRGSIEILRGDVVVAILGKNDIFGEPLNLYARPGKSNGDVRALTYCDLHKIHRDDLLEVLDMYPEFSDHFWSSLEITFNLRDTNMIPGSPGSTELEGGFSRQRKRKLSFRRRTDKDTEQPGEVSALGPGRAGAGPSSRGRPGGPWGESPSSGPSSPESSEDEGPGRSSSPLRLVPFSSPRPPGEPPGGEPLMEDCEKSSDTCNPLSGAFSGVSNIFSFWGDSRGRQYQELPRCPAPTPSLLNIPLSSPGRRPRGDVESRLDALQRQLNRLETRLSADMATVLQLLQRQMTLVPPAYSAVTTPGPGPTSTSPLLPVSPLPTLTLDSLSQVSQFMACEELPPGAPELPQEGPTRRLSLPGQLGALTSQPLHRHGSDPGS

SMILES	hERG current change (%, negative = inhibition) at 10uM
COc1ccc2c(c1)OC(O)(C(F)(F)C(F)F)CC2=O (stereo not shown)	-6.12%
COc1ccc(-c2nc3ccc(N4CCCC4)cc3c(=O)[nH]2)cc1OC	8.32%
COc1ccc(NC(=O)Nc2nnc(-c3ccccc3F)s2)cc1	31.2%
O=C(O)c1cccc(-c2noc(-c3cccc(Cl)c3)n2)c1	13.1%
S=C(NCCc1c[nH]c2ccccc12)NC1CC1	24.6%
Cc1[nH]c2c([N+](=O)[O-])cccc2c1C	-7.54%
Cc1ccc(OCC(=O)Nc2ccc3oc(=O)ccc3c2)cc1C	11.1%
COc1ccc(CN2C(=O)c3ccccc3C2=O)cc1	9.28%
CCCc1cc(N2CCOCC2)n2nc(C)c(-c3ccccc3)c2n1	13.3%
CCCCNC(=O)/C(C#N)=C/c1ccc(-c2ccc(S(=O)(=O)N3CCOCC3)cc2)o1	14.6%
COc1ccc(C(=O)c2c3ccccc3[n+]([O-])n2CCC[NH3+])cc1.O=C([O-])C(F)(F)F	-28.9%
CC1CCC(NC(=O)c2ccc(NC3=NC4CS(=O)(=O)CC4S3)cc2)CC1 (stereo not shown)	1.92%
O=C(CN1C(=O)c2ccccc2C1=O)NNC1=NS(=O)(=O)c2ccccc21	7.58%
C=CCn1c(SCC(=O)c2cccs2)nnc1-c1cccc(OC)c1	-14.9%
COc1ccc(Nc2c3c(nc4ccccc24)CCCC3)cc1OC	-73.2%
CCOC(=O)N/N=C\c1ccc(OC(=O)c2ccc3c(c2)OCO3)cc1	-0.337%
O=C(Nn1c(O)c(C=C2N=c3ccccc3=N2)sc1=S)c1ccccc1	22.3%
COc1ccc(C(=O)OCCOc2ccccc2C(C)=O)c(O)c1	22.7%
COC(=O)c1cc(C)sc1NC(=O)c1ccco1	15%
Cc1ccc(S(=O)(=O)N(C)Cc2nc(-c3ccc(Br)cc3)no2)cc1	4.12%
O=C(CCl)Nc1cn(-c2ccccc2)nc1-c1ccc(F)cc1	-7.91%
COc1ccc2oc(C(=O)Nc3nnc(C)s3)c(C)c2c1	4.69%
COc1ccc(OC)c(S(=O)(=O)N2CCN(c3ccccc3OC)CC2)c1	-10.7%

SMILES	hERG current change (%, negative = inhibition) at 10uM
N#CC1CC(c2ccccc2)Nc2cc(Cl)ccc2N1 (stereo not shown)	5.89%
NC(=O)CC(NC(=O)c1ccccc1)c1ccc(NCc2ccc(F)cc2)c([N+](=O)[O-])c1 (stereo not shown)	-48%
Cc1ccc(Nc2nc(NCCCN3CCOCC3)nc(N)c2[N+](=O)[O-])cc1C	-5.15%
Cc1ccc2c(c1)n([O-])c1c([n+]2=O)CCCC1	4.28%
Nc1ncnc(NCc2ccccc2)c1[N+](=O)[O-]	0.645%
O=C(Nc1ccc(Cl)cc1Cl)N1CCN(c2ncccn2)CC1	-21.1%
CCCCSCCCNC(=O)C1CCC(CNS(=O)(=O)c2ccc(NC(C)=O)cc2)CC1 (stereo not shown)	17.4%
CCCCCCOc1ccc(C(CC(=O)NC)C(=O)O)cc1 (stereo not shown)	18.7%
COC(=O)c1ccc(C2Nc3ccc(/C(C)=N/NC(=O)C(OC)c4ccccc4)cc3C3C=CCC32)cc1 (stereo not shown)	-76.2%
O=C(Nc1ccc(N2CCOCC2)c(Cl)c1)c1c(F)c(F)c(F)c(F)c1F	-39%
CCOC(=O)C1CCN(S(=O)(=O)c2ccc3c(c2)NC(=O)CS3)CC1	-22.4%
O=C1N(CN2CCN(c3cccc(Cl)c3)CC2)c2ccccc2C12OCCCO2	-0.924%
Cc1cc(C(F)(F)F)nn1CC(=O)Nc1cccnc1	13.3%
CCC1(C)Cc2ccccc2C(Nc2c(C)n(C)n(-c3ccccc3)c2=O)=N1 (stereo not shown)	6%
COc1ccc(C(=O)CSC2=C(C#N)C3(CCCCC3)C(C#N)=C(N)N2)cc1	-5.36%
COC(=O)CCC(=O)NC(=S)Nc1cc(Cl)ccc1Cl	10.5%
COc1ccc(C(=O)C2CCCN(Cc3ccc4nonc4c3)C2)cc1OC (stereo not shown)	-67.4%
COc1ccccc1NS(=O)(=O)c1cc2c(cc1C)NC(=O)CO2	-7.43%
CCOC(=O)C1=C(COC(=O)Cc2ccc(Cl)cc2)NC(=O)NC1C (stereo not shown)	-32.7%
O=C(/C=C/c1ccc([N+](=O)[O-])cc1)NCCc1ccc(F)cc1	-60.3%
CCn1c(CSc2nnc(-c3ccncc3)n2CCOC)nc2cc(C(=O)O)ccc21	4.99%
C1=C(CCNc2ncnc3c2cnn3-c2ccccc2)CCCC1	8.79%
CC1CCN(C(=O)c2[nH]cnc2C(=O)N2CCN(C(=O)OC(C)(C)C)CC2)CC1	19%

SMILES	hERG current change (%, negative = inhibition) at 10uM
Cc1ccc(NC(=O)c2ccc3ccccc3n2)cc1S(=O)(=O)N1CCOCC1	12.9%
COc1ccc(C(=O)/C=C/Nc2ccc([N+](=O)[O-])cc2C)c(OC)c1	3.07%
Cc1cc2c(cc1S(=O)(=O)N1CCCC1)n(C)c(=O)c(=O)n2C	-4.62%
COC(=O)c1c(NC(=O)C(Cl)Cl)sc2c1C(C(=O)OC)CC2 (stereo not shown)	-0.381%
COc1ccc(N(CC(=O)Nc2cccc(SC)c2)S(C)(=O)=O)cc1	-12.5%
Cc1cc(NC(=O)C23CC4CC(C2)CC(n2cnc([N+](=O)[O-])n2)(C4)C3)no1	-32.4%
CCOP(=O)(c1ccc(N(C)C)cc1)C(O)c1ccccc1 (stereo not shown)	10.3%
CCOc1ccc(C(=O)Nc2ccccc2N2CCOCC2)cc1	-5.52%
Nc1nc(Cl)cc(N2CCCC2)n1	-3.85%
COc1ccccc1CN1CCNC(=O)C1CC(=O)NCCc1cnccn1 (stereo not shown)	16%
CCOc1ccc2nc(NS(=O)(=O)c3ccc4c(c3)n(C)c(=O)n4C)sc2c1	18.5%
COc1ccc(Nc2ncc3c(n2)CC(c2ccccc2)CC3=O)cc1 (stereo not shown)	-29.6%
COC(=O)CCSC(=S)N1CCOCC1	7.23%
COCCC1CCCCN1C(=O)c1ccc(OC)c(OC2CCN(C(C)=O)CC2)c1 (stereo not shown)	6.34%
Cc1nn(C/C(C#N)=N\O)c(C)[n+]1N.[Cl-]	14.2%
CCSc1nc2c(c(=O)[nH]c(=O)n2C)n1Cc1ccc(Cl)cc1	-2.15%
COC(=O)CSC1=C(C#N)C(c2sccc2C)CC(=O)N1 (stereo not shown)	-0.133%
C=C(C)Cn1c(SCC(=O)NCc2ccco2)nc2sc3c(c2c1=O)CCC3	-3.97%
Cc1cc(O)ccc1-c1cnc2ccccc2n1	2.9%
CCOC(=O)C1(Cc2ccccc2)CCN(Cc2cccn2-c2nccs2)CC1	-82%
COc1ccccc1OCCNC(=O)/C=C/c1ccc([N+](=O)[O-])cc1	-49.2%
Cn1cc(/C=C(\C#N)C(=O)Nc2ncc(Cc3cccc(Cl)c3)s2)c2ccccc21	3.31%
COc1cccc(OC)c1OCCCCc1c(C)n[nH]c1C.Cl	-10.7%

SMILES	hERG current change (%, negative = inhibition) at 10uM
O=C(CCC1CCCCC1)NCc1cccnc1	4.37%
CC[N+](CC)(CC)CC.[Cl-]	0.107%
Cc1cc(C(=O)N/N=C/c2ccc(-c3cccc([N+](=O)[O-])c3)o2)n[nH]1	5.63%
COc1cccc(/C=N/NC(=O)c2ccc(=O)n(C)c2)c1O	16.6%
C=CCn1c(SCC(=O)c2cccs2)nc2sc(C)c(C)c2c1=O	3.1%
COc1ccc(-c2ccc(-c3noc(C(C)C)n3)c(OC)n2)cc1	9.26%
CCOC(=O)C1(CC2CCCCO2)CCN(S(=O)(=O)c2ccsc2)CC1 (stereo not shown)	-14.4%
Cc1cccc(C(=O)O/N=C2/CC3CCC2(C)C3(C)C)c1 (stereo not shown)	-11%
O=C(NN1C(=O)c2ccccc2C1=O)C1CC2CCC1C2 (stereo not shown)	11.5%
CSCc1ccc(C(=O)N2CCC(CCC(=O)N(C)Cc3ccccc3)CC2)o1	-50.7%
COc1cccc(-c2cc3nc4c(c(N5CCC6(CC5)OCCO6)n3n2)CCCC4)c1	5.22%
CC(=O)Nc1ccc(N2C(=O)CSC2c2cccc([N+](=O)[O-])c2)cc1 (stereo not shown)	15.6%
CCOc1ccccc1N1CCN(S(=O)(=O)c2ccc(Cl)s2)CC1	3.83%
CN1CCN(/N=C/c2ccc(-c3ccc([N+](=O)[O-])cc3)o2)CC1	-66%
Cc1ccc2nc(-c3ccccn3)c(Nc3ccccc3C)n2c1	-15.7%
C=CCOc1c(CNc2nccs2)cccc1OCC	3.58%
Cc1cccc(Oc2ncnc3onc(C)c23)c1	1.17%
COCCCNC(=O)CSc1ccc(Cl)cc1	2.32%
COc1ccccc1C(=O)OCC(=O)NC(C)CCc1ccccc1 (stereo not shown)	-1.84%
COc1ccccc1N(C)S(=O)(=O)c1ccc(C(=O)OCC(=O)NCc2cccs2)cc1	5.35%
COc1ccc(OC)c2nc(-c3ccc4c(c3)OCO4)ccc12	10.4%
CC1(C)SC(=S)N(Cc2ccc3c(c2)OCO3)C1N(O)C(=O)NC1CCCCC1 (stereo not shown)	10.4%
